{"source": "the supplement of paper PMC12632987", "binders": {"B1": {"name": "traf2_out_20_3_2058 (protein)", "chain": "SELDEEIEKKTKELEKKLAELAKLLPPEEAAELAKAWAEVKKAAKEGLEEFLIAVSKLRRLLLELSEEARARGDEKTAKLLEEAAEIAQEIAHLIYKKIE"}, "B2": {"name": "traf2_out_6_156_2442 (protein)", "chain": "TLDAILAETKKKVEEEIKKLAESSEEEHIKWINRIAGTIYRALQQARAAGASLAELKAFAEEVNKVIEEEAKKYGLPESVRNLLLSSVNAVFDVALAAAA"}, "B3": {"name": "traf2_out_18_117_1782 (protein)", "chain": "SRREEIIKRLEEIAEETGRAASELGKLMEENWEKLTPEEKSEAMDVLADLSAVRREALLLIHEIETEDVPVEEAEKRLEELEKRARAALAAAAEVIARIK"}, "B4": {"name": "traf2_out_18_117_1787 (protein)", "chain": "MEREEIIERLKEIAEETGRAASELGKLVLEKWEELTPEEKSEAFDVLADLSEVRREAQLLIIEIEEKNLPIEEAKKRLEELEKRAEEALKRAEEKIKRIK"}, "B5": {"name": "traf2_out_20_3_2179 (protein)", "chain": "EELEEELEEELEEALELIKEAAKLADEETAKKLEELAERLKESRELSYEDRLVELSEIRRELLELAEAAKAAGKEELAAVLEEAAEELNEAMNLVYEIIE"}, "B6": {"name": "traf2_out_11_155_770 (protein)", "chain": "EEKLKINQELVDKNMEIRDEAIEKIRELILNDESLTEEEKKELLEILEKNKSLGLRTMAESLIRKALELGKEELAEKIREILEEAQKKMSEAAIEAEKKI"}, "B7": {"name": "traf2_out_20_3_2102 (protein)", "chain": "EELEKELEKEIEEALKLLEEAAKLADPETAARLKELAKRVEESRSLSPSDRLVELSEVRREVLALAQEAKAAGREELAAVLEEAAEELNEAMNLLYKIIE"}, "B8": {"name": "traf2_out_17_178_1697 (protein)", "chain": "SKEEIRKKISELTDKLIDLTDEYGTKLIAALKAEGVLTPEELARLEAALASGSNRTFLETAKEIIPKSAASAETKALLEEFEKEYKEISKKIAEAYEKYE"}, "B9": {"name": "traf2_out_13_95_1089 (protein)", "chain": "SKEVAEKIMEIADEMLEKSEKLLEELLKKAKEKGKLVEEVEEALRLARYRSINEAIALLEELAKKYPEFKEELEETIKKLKEIKREAGKKVAEILKKEEE"}, "B10": {"name": "traf2_out_18_167_1854 (protein)", "chain": "EEERRRRRRELSDRLVRLSEVKRAARALIQALRTDRAAAPAELARLRAAAAEVPELQPLVAAIEAALAAGDWAGALAGAEALIAEAQRLMNEAIRAYEKE"}, "B11": {"name": "traf2_out_19_16_1988 (protein)", "chain": "SEEEAKKLKEKMNEHLEKALKLAEEAVKNLEKLSREELMDKLVEISELVRKAKEYLQKYLELAKDKEEERKKVTEEYDEKLDKIQRLMTVIVKRIEELLK"}, "B12": {"name": "traf2_out_17_162_1641 (protein)", "chain": "SAAEELRKRLLEELERLEKELKELEEKSKKIDEYTKEELSDLIVEASEARRRARELIEEVDRNRSLLDPEEYEELKKRLEEIAERLNRIAQKFYDKYLEL"}, "B13": {"name": "traf2_out_5_189_2332 (protein)", "chain": "SEEEREREELREEAREAVEIANELLRLYTEEGLSPEEILARIREIAARLSPERANLLLGSTAALFEAYAISTGDEEARALAERVRELRRELLARRAAEAA"}, "B14": {"name": "traf2_out_17_178_1658 (protein)", "chain": "NKEEARKKISEATDKLIDLTRETAARLLAILEADGTASPEELAALREAQRLGSATTTLALLDRAVPRSPRAAEVAALRDDFRARSGELAKEIAEAYKEYE"}, "B15": {"name": "traf2_out_18_167_1850 (protein)", "chain": "EEEIRERRRELSDRLVELSEVVRAARAALQALDTDRSRVPAELARLEAAAASIPELQPLVAAARKALAAGDEAGLRATLEALIEKAQKLMNEVLKEYEAL"}, "B16": {"name": "traf2_out_13_95_1146 (protein)", "chain": "SKEVAEKIMEIADKMLEQKDAILDDLEAQLKAQGLLTPELEAALEEAKNSSISTAIHLLQELAKRYPEAKALLEAAIKQLQAIKTQAGKEVAKILKEEEE"}, "B17": {"name": "traf2_out_18_3_1903 (protein)", "chain": "KEEERKKLSDEIDKIVDEATAKAREVLDRLAERHPEVAERLARLRADLDAGGGAFGILEELAELAKELGDEELAKEIEEFLREKREKMQKLVDEYEKLIK"}, "B18": {"name": "traf2_out_6_166_2477 (protein)", "chain": "MEEEIERIKELAKKFDKYSPEVVIEAFEKVAKERDDRRARIARQLASAVRQAEKAGLPISTIITAYALGLIALGVPAEEIIELLEEILKEAEKIAKEKEK"}, "B19": {"name": "traf2_out_13_95_1140 (protein)", "chain": "SAETAAKIMAIADEMLEKSEAVLNELLEKAKKAGKLVEEIEEVLHLARYQSINEAIHKLKELAKKYPEFAEELNAAIEKLEAIRREAGRRVAEILKEEKE"}, "B20": {"name": "traf2_out_13_95_1162 (protein)", "chain": "DPETAKKIMEIADKMLDESLALLEELLKIAKEKGIAVEEIEEAIRAARYQSINEAIHLLEELAEKYPELKEELEATIEKLKALREKAGKEVAKILKEAEE"}, "B21": {"name": "traf2_out_16_104_1388 (protein)", "chain": "SAELDAKFEEIIKKLEEIAEEANKLMNELYQLYLKASPEDKEKISDALVEASELRREALEAAIEAKEMRKAGGDPEEAEKKLKELEARLKELKKKVEELK"}, "B22": {"name": "traf2_out_17_162_1655 (protein)", "chain": "SALEEQLAEIEEALRELEEETRRLREKLERISEYSKEELSDLMVEASEVKRRALELLQRIEELAPLLDPETAEELRRRLEEIIEEAQRIANEFYKEYEKK"}, "B23": {"name": "traf2_out_1_27_1001 (protein)", "chain": "SDEEERELLRRANREIGRASPEEQIEVIRRTLREALARGLDSPVHIATVLILSLGEPETRERALEAVEEVLREAGLPEEEIELLRRRVRSGFARLERLLA"}, "B24": {"name": "traf2_out_20_3_2256 (protein)", "chain": "SELREEALKELERAEKILKELEPKLPAEDAKALRDALKAAREALETDYSDALVEASELRRLALALAEKARAAGDEETAALLEELAEEMQRAAYYLSKIIE"}, "B25": {"name": "traf2_out_18_167_1852 (protein)", "chain": "EEEERERRRELSDRLVDLSEVKREARALIQALETDRSLAPAELAELEEAAKKVPELQPLVDKIRAALEAGDWEGARKAAEELIEKAQRLANEAIREYEAA"}, "B26": {"name": "traf2_out_15_180_1332 (protein)", "chain": "MTEEELEKRIELVAEVADEADERVREELAAAGVTSPEHLALARSGVRAVITHVFAGWEEEAEEVEEIVAARLPEELRPLFRRLVEEARRRAEEALERLKK"}, "B27": {"name": "traf2_out_9_17_2622 (protein)", "chain": "AEEREREREAILEAVEEVLKELVEKGYITEEEAEEILRRVREAIERGLSADEVRATFLGDIASILLFKKKYSVQEAQKIVGEAYRRFRRLMEERRARAAA"}, "B28": {"name": "traf2_out_13_95_1064 (protein)", "chain": "SRETAAKINALADEAEARALALLDAAREELADDPAIVAALDEARAAAETKGLRAAIHVLRQARAANPAHAEAFDALIAELEAIRRDLGRRVAEIIKEEKE"}, "B29": {"name": "traf2_out_1_27_1015 (protein)", "chain": "SDEELTKLIKETDKKIAEVSDEEAKKVVKEALKKAYELGPEDAMMLARTLIASQLDEERLKVIAEAAIEAFKELGFPEEEIERLRRIAESVLELNRKAKA"}}, "note": "In all, about 1,800 sequences were measured (“median log2 fold change of GCK-ALFA target abundance (FLAG IP / Myc IP barcode read proportion)”: median about 0.14, lowest 2% from about -0.84 on). This is one part of the list.", "data": [{"target": "T1, TRAF2, Q12933", "T1 chain": "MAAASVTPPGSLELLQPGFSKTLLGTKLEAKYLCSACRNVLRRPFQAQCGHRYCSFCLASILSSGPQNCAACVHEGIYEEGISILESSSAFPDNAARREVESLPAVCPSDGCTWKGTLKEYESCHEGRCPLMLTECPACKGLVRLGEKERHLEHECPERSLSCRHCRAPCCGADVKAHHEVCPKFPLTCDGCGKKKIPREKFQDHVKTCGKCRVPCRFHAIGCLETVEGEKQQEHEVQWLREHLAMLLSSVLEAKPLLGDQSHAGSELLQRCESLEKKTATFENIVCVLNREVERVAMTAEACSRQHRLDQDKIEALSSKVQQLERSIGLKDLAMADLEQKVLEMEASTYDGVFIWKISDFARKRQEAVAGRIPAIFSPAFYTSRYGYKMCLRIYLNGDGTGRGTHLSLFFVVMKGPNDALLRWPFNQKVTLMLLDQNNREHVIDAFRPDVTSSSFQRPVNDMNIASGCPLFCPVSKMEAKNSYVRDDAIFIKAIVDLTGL", "assay": "median log2 fold change of GCK-ALFA target abundance (FLAG IP / Myc IP barcode read proportion) (log2 ratio); each designed protein is fused to an ALFA-tag nanobody in HEK293 cells to bring the named protein to FLAG-tagged glucokinase (GCK); Myc marks an untargeted standard; higher = target protein stabilised (more abundant)", "details": "target protein: 3xFLAG-MCP-GCK-ALFA reporter; HEK293 landing pad (RPLP)", "in_short": "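HEK293 landing-pad cells received a recombined binder library fused to the ALFA nanobody and were induced with 2 μg mL^−1 doxycycline, then transfected with a plasmid encoding a FLAG-tagged target and a Myc-tagged standard. Lysates were collected after 48 h for anti-FLAG and anti-Myc immunoprecipitation, and the circular RNA barcodes were reverse transcribed, amplified and sequenced. Target abundance for each binder is the median log2 ratio of FLAG to Myc barcode read proportions. Barcodes had to reach a proportion of at least 10^−7 in both replicates, each binder needed at least 3 barcodes per replicate, a pseudocount of 10^−6 was applied, and the two replicates were pooled.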", "values": [{"binder": "B1", "median log2 fold change": 0.144}, {"binder": "B2", "median log2 fold change": -0.216}, {"binder": "B3", "median log2 fold change": 0.121}, {"binder": "B4", "median log2 fold change": 0.101}, {"binder": "B5", "median log2 fold change": -0.145}, {"binder": "B6", "median log2 fold change": 0.295}, {"binder": "B7", "median log2 fold change": 0.282}, {"binder": "B8", "median log2 fold change": 0.348}, {"binder": "B9", "median log2 fold change": -0.749}, {"binder": "B10", "median log2 fold change": -0.377}, {"binder": "B11", "median log2 fold change": -0.0165}, {"binder": "B12", "median log2 fold change": 0.177}, {"binder": "B13", "median log2 fold change": -0.801}, {"binder": "B14", "median log2 fold change": 0.191}, {"binder": "B15", "median log2 fold change": 0.197}, {"binder": "B16", "median log2 fold change": -0.587}, {"binder": "B17", "median log2 fold change": 0.294}, {"binder": "B18", "median log2 fold change": -0.362}, {"binder": "B19", "median log2 fold change": 0.0238}, {"binder": "B20", "median log2 fold change": 0.0847}, {"binder": "B21", "median log2 fold change": 0.392}, {"binder": "B22", "median log2 fold change": 0.458}, {"binder": "B23", "median log2 fold change": 0.184}, {"binder": "B24", "median log2 fold change": 0.278}, {"binder": "B25", "median log2 fold change": 0.22}, {"binder": "B26", "median log2 fold change": -0.0893}, {"binder": "B27", "median log2 fold change": -0.226}, {"binder": "B28", "median log2 fold change": -0.204}, {"binder": "B29", "median log2 fold change": 0.412}]}]}
